The source gives no read counts; variants with many changes may rest on few reads.
B1: LINE1-full (parent)
chain: UACGUAGGUGGUUUUCCCCUGAUAGUGCUAAGGGGGCCUGGAAGUUUGGACUGGGCAGAGCUCAACACAGCGUGGCAAAGUGGCUGUGGCUAGACUGCCUCUCUGGAUUCCUCGUCACUCAGCAGGGCAUCUCUGAGAGAAAUGCC

Variants of: B1
Experiment: self-cleavage, relative activity (ratio to wild type); higher = more cleavage; in vitro, sequencing; the parent is a self-cleaving ribozyme

Variant | self-cleavage
U45C G93A U109C | 0.12
U45C G97U U100C | 0.13
U45C U46C A64G G74A | 0.16
U45C U46C A94U | 0.4
U45C U46C C56U G105A | 0.26
U45C U47A U100C U130A A141G | 1.97
U45C U47C U87A U100C A138G | 0
U45C U52A A57G U112C | 1.06
U45C U62A U143C | 0.09
U45C U62C A65U | 0.05
U45C U62C U100C | 0
U45C U62C U109C A138U | 0.16
U45C U62C U119A A140G | 0.1
U45C U62G A140G | 0.37
U45C U62G C84A U134A | 0.02
U45C U73A A77G A79G | 1.84
U45C U73A A136G | 1.76
U45C U73C U130A | 0.53
U45C U73C U132C A140U | 2.3
U45C U73G G83A U91A | 0.08
U45C U81A U96A A124G | 0.13
U45C U81A U115C U119A | 2.19
U45C U85A A124U A129G | 0.12
U45C U85C C90U | 0.09

Variant | self-cleavage
U45C U85C U87G U112C A124U A140G | 0.71
U45C U85G G89A | 0.05
U45C U87A A129G G137A | 0.13
U45C U91A A129C | 0.95
U45C U91C U96C | 0
U45C U96A G126A | 0.02
U45C U96A U112C | 0.04
U45C U96G A129G | 0
U45C U100C A140G U143A | 2.69
U45C U100C U134A | 2.02
U45C U104C A129U | 1.78
U45C U104C A141G | 2.13
U45C U108C G125A | 2.1
U45C U112C A129G U132A | 1.72
U45C U112C C133A | 0
U45C U119C A141U | 2.14
U45C U119C U134C | 1.15
U45G A50G C84U | 0.14
U45G A59G U115C | 0.26
U45G A64U A121G | 0.27
U45G A69G A117G | 0
U45G A92U U108C A136G | 0.93
U45G A138G A141G | 1.67
U45G C66U G74A G82A | 0.03

Variant | self-cleavage
U45G C71G U112A | 0.27
U45G U46C U102A | 1.84
U45G U47C U62C U100A A107U | 0
U45G U96G U109C A136G G144A | 0
U46A A50G A138G | 2.9
U46A A57G G72A | 0.53
U46A A64U A77U G83U U119C A136G U143C | 0.25
U46A A65G U130C A138G | 0.14
U46A A67U U85C U108A U112C | 0.03
U46A A69U A141G | 0.04
U46A A69U G88A | 0.04
U46A A77G U104C | 2.1
U46A A77U A129G A136U | 1.27
U46A A77U U143C | 1.19
U46A A78C U91C | 0.3
U46A A78U U87G | 0.26
U46A A92G U100A C131A U132C A136G | 0.23
U46A C76G C101U C120A A129G | 2.21
U46A G54A A57G A65U | 0.02
U46A G54C A67U A77G A138G | 0.04
U46A G74A G86U | 0.07
U46A U52A G74U A136U | 1.33
U46A U73A A94G G135U | 0.38
U46A U73A C116A | 1.12

Variant | self-cleavage
U46A U85A U96C | 0.05
U46A U96C U112C U130C U143C | 0
U46A U100A A142G | 0.7
U46A U100A U134A | 1.04
U46A U115C U134A | 1.16
U46A U115G C123A | 1.37
U46C A57C A69U C84A | 0.05
U46C A57G A78G | 1.08
U46C A57G U73A | 0.61
U46C A57U A78G G126A C128U | 0.14
U46C A57U A79G | 0.1
U46C A57U U134C | 0.19
U46C A59U U73A U102A U108C | 1.18
U46C A64C A140G | 0.3
U46C A64G A138G | 0.14
U46C A64G U73A A138U | 0.26
U46C A64G U104A | 0.15
U46C A64G U143A | 0.31
U46C A64U U102A | 0.51
U46C A65G A117U A121G | 0.06
U46C A65U U108C | 0.14
U46C A67G A140G | 0.88
U46C A67U U96C | 0.07
U46C A69G U109C | 0.22

Variant | self-cleavage
U46C A69U C71U A78U | 0.04
U46C A69U C103A | 0.04
U46C A77G U119C | 1.64
U46C A77G U134C | 1.81
U46C A77U A78G | 1.19
U46C A77U U91C A121U | 1.31
U46C A77U U112C G139U | 1.39
U46C A78G G88A U134A | 0.05
U46C A78G U87A | 0.22
U46C A78U G114A | 2.55
U46C A79G G106U A141G A142G | 1.79
U46C A79G U134C | 0
U46C A92U A142G | 0.31
U46C A94U G106U | 0.31
U46C A107U A117U | 1.3
U46C A107U A140U | 1.54
U46C A124G U132C | 1.5
U46C A129G U143C | 2.12
U46C C63U A77C U130C | 0.18
U46C C66U G72C | 0.04
U46C C71A U109C | 0.22
U46C C99U A136G | 1.05
U46C C113G A141G | 1.27
U46C G48A U134C | 1.7

Variant | self-cleavage
U46C G53A C84A | 0.11
U46C G54A A77G A79G U91C | 0
U46C G70A A107G U119C | 0.3
U46C G75A G97A U100A A138G | 0.75
U46C G114A A136G | 1.25
U46C G114U A138G | 0.76
U46C G125A A129G | 2.43
U46C U47A A79U | 1.59
U46C U52A A69G A124C | 0.61
U46C U52C A59U U96C | 0
U46C U52C U132C U143A | 0
U46C U52C U143C | 2.89
U46C U62A A136G | 0.04
U46C U62C U109C | 0
U46C U62C U115C | 0
U46C U62C U143G | 0
U46C U73A A78G G86A | 0.06
U46C U73A G135A | 1.39
U46C U73A U81C | 1.69
U46C U73A U119A A124G U143A | 2.02
U46C U73C C98U | 1.01
U46C U73C C113A U115A | 1.76
U46C U81C A136U | 2.14
U46C U85A G97A | 0.18

Variant | self-cleavage
U46C U85C A117U A121U U134G A136G | 0.77
U46C U85C U100C A142G | 0
U46C U85C U130C | 0
U46C U87C G139A | 0.63
U46C U91C A136G A141G | 0.92
U46C U91G G114A A138G | 0
U46C U102A U119C U134A | 1.79
U46C U102C A129G U134C | 0.57
U46C U104A U130C | 0.74
U46C U108C U115C | 1.84
U46C U109C A129G A141G | 2.3
U46C U112C U132C | 2.51
U46C U115A A140G | 1.9
U46C U119C A124U | 1.9
U46C U119G A136G | 0.68
U46C U130C U134A | 1.22
U46C U134A C145A | 1.27
U46G A50U U81A U96C A141G | 0
U46G A64U A92G U100C U112C | 0
U46G A65G C90A U130A A140G | 0.04
U46G A79G U87C G106A U109C | 0
U46G U52C C128U A138G | 1.81
U47A A50G G53A U87C U96C U115A U132C | 0.21

— the RNAGym collection of RNA variant scans (doi:10.7554/elife.90254)
